The subject of one experiment is Capan-1-GFP tumor cells. The experiment is described as follows: Coculture of CAR/iMC T cells with Capan-1-GFP tumor cells. To be noted: 10 nM rimiducid. An excerpt: FIGS. 2A-2F provide the results of assays showing that T cells cotransduced with iMC and PSCA.ζ CAR show improved tumor killing and expansion in a rimiducid-dependent manner. FIG. 2A) A schematic representation of T cells genetically modified with a CAR and iMC. FIG. 2B) T cells were transduced with PSCA.ζ CAR and either FKBP or iMC retrovirus and measured for coexpression by flow cytometry using CD19-PE and anti-CAR-APC. FIG. 2C) Non-transduced and PSCA.ζ CAR T cells modified with either FKBP or iMC were cocultured with Capan-1-GFP tumor cells at a 1:1 T cell to tumor cell ratio with and without 10 nM rimiducid. Tumor cell and T cell frequency were assessed after 7 days by flow cytometry. Tumor cell frequency was assessed by flow cytometry by measuring CD3^−GFP^+ tumor cells by SSC/GFP gating. Enrichment of T cells coexpressing iMC and CAR were assessed in coculture assays by flow cytometry by measuring CD19-PE and anti-CAR-APC frequency, respectively. FIG. 2D) T cells were subsequently assessed for CD25 expression and measured for T cell proliferation (FIG. 2E) using flow cytometry and cell enumeration. FIG. 2F) T cells cotransduced with iMC or Ctrl vector, and PSCA.ζ CAR were cocultured with and without Capan-1 tumor cells, and with and without 10 nM rimiducid and the supernatants measured for IL-2 levels after 48 hours. * indicates p-value <0.05. ** indicates p-value <0.01. […]

Experiment [1] deals with iMC and PSCA.ζ CAR T cells. The experiment is described as follows: Survival of iMC and PSCA.ζ CAR T cells cultured without IL-2. It is filed as cell-based, human. The following applies: no exogenous IL-2 or TCR activation. On the procedure:
FIG. 11 provides assay results showing that iMC activation enhances CAR survival in the absence of IL-2. T cells transduced with iMC and PSCA.ζ CAR were cultured in media without IL-2 for 42 days. T cells received no treatment (media change only), αCD3 stimulation (50 ng/ml OKT3), 10 nM rimiducid (CID) or both CD3 and CID stimulation on a weekly basis. Cultures were phenotyped by flow cytometry for T cell survival (FSC/SSC) and iMC^+CAR^+ expression by flow cytometry.

A further experiment concerns iMC-modified T cells. The experiment in a line: Cytokine/chemokine production (ELISA, multiplex array) and CD25 expression of iMC-modified T cells with rimiducid. The following applies: 10 nM rimiducid. On the procedure: FIGS. 1A-1H provide the results of assays showing that iMC functions provide inducible costimulation T cells. FIG. 1A) Schematic diagram of dimerization of the MyD88 and CD40 cytoplasmic signaling domains in T cells following rimiducid exposure. […] FIG. 1C) Analysis of IL-6 production following 10 nM treatment with rimiducid in T cells transduced with vectors containing only FKBPs, or inducible MyD88, inducible CD40 or iMC. FIG. 1D) Multiplex array measuring time-dependent phosphorylation JNK, RelA and p38 (MAPK) signaling molecules following transduced T cell exposure to 10 nM rimiducid. FIG. 1E) Western plot analyses of phosphorylated signaling proteins in T cells transduced with FKPBs or iMC following rimiducid treatment for 0, 15 and 60 minutes. Positive control indicates T cell treatment with PHA and ionomycin. FIG. 1F) T cells transduced with vectors containing only FKBPs, or inducible MyD88, inducible CD40 or iMC were activated with and without 10 nM rimiducid and/or 50 ng/ml soluble anti-CD3 and supernatants measured for IL-2 by ELISA and assessed for CD25 expression by flow cytometry (FIG. 1G and FIG. 1H). * indicates p-value <0.05.
FIGS. 9A and 9B provide assay results of the induction of cytokines by rimiducid in iMC-transduced T cells. […] Supernatants were then collected and analyzed using a multiplex cytokine/chemokine array.
Immunophenotyping. Gene-modified T cells were analyzed for iMC transgene expression 10-14 days post-transduction by using CD3-PerCP.Cy5 and CD19-PE (BioLegend). […] T cells were also analyzed for CD4, CD8 and CD25 (BioLegend) following activation with 10 nM rimiducid and Capan-1 tumor cells. All flow cytometry was performed using an LSRII flow cytometer (Becton Dickenson, East Rutherford, N.J.), and the data analyzed using FLOWJO (Tree star, Ashland, Oreg.) or KALUZA software (Beckman Coulter, Pasadena, Calif.).
Cytokine and chemokine production. Production of IFN-γ, IL-2 and IL-6 by T cells modified with iMC or control vectors were analyzed by ELISA per the manufacturer's protocol (eBioscience, San Diego, Calif.). […]
(An ELISA detects its analyte on a solid surface through an enzyme-linked reagent.)

The values below come from patent publication US10934346B2, “Modified T cell comprising a polynucleotide encoding an inducible stimulating molecule comprising MyD88, CD40 and FKBP12” (priority 2014, dated 2021).

SMILES strings stand for the structures.

With `CC[C@H](C(=O)N1CCCC[C@H]1C(=O)O[C@H](CCc1ccc(OC)c(OC)c1)c1cccc(OCC(=O)NCCNC(=O)COc2cccc([C@@H](CCc3ccc(OC)c(OC)c3)OC(=O)[C@@H]3CCCCN3C(=O)[C@@H](CC)c3cc(OC)c(OC)c(OC)c3)c2)c1)c1cc(OC)c(OC)c(OC)c1` (relative stereo) [rimiducid, 2-Piperidinecarboxylic acid, 1-[(2S)-1-oxo-2-(3,4,5-trimethoxyphenyl)butyl]-, 1,2-ethanediylbis [imino(2-oxo-2,1-ethanediyl)oxy-3,1-phenylene[(1R)-3-(3,4-Dimethoxyphenyl)propylidene]] ester, [2S-[1(R*),2R*[S*[S*[1(R*),2R*]]]]]-(9Cl)], the “frequency of CAR+iMC+ T cells” value with Capan-1-GFP tumor cells is reported as “dramatic increase in the frequency of rimiducid-activated CAR^+iMC^+ T cells”. Moreover, the “survival of CAR T cells” value in experiment [1] is given as “improved survival of CAR T cells in the absence of exogenous IL-2 or TCR activation”. In the experiment on iMC-modified T cells (48 hours, iMC T cells), the “cytokines and chemokines induced (multiplex array)” value was “GM-CSF, TNF-α, IL-5, IL-6, IL-8 and IL-13 secretion were induced”; the “cytokines not upregulated (multiplex array)” value was “production of IL-2 and other cytokines was not upregulated”. The IFN-γ production result in the experiment on iMC-modified T cells (transduced and non-transduced T cells) is “elicited IFN-γ production only in iMC-modified T cells”.
